# The list shows a part of the results.
# Legend:
# Test in all cases: glycan array binding signal (z-score within array); higher = stronger binding
# Conditions in all cases: glycan notation: IUPAC condensed, linker removed
# [1] = molecular target: Neu5Ac(a2-3)Gal(b1-4)GlcNAc(b1-6)GalNAc
# How it was run: (§1)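 Columns mapping to the same glycan were averaged after glycan names were converted to IUPAC-condensed notation. The data come from 3228 arrays in the Consortium for Functional Glycomics database, limited to those with an available protein sequence. Binding is reported as a within-array Z-score averaged across arrays of one protein sequence and across linkers.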
# [2] = molecular target: Neu5Ac(a2-3)Gal(b1-4)GlcNAc(b1-6)[Gal(b1-3)]GalNAc
# How it was run: as §1
# [3] = molecular target: Neu5Ac(a2-3)Gal(b1-4)GlcNAc(b1-6)[Neu5Ac(a2-3)Gal(b1-3)]GalNAc
# How it was run: as §1
# [4] = molecular target: Neu5Ac(a2-3)Gal(b1-4)GlcNAc6S
# How it was run: as §1
# [5] = molecular target: Neu5Ac(a2-3)Gal(b1-4)[Fuc(a1-3)]GlcNAc
# How it was run: as §1
# [6] = molecular target: Neu5Ac(a2-3)Gal(b1-4)[Fuc(a1-3)]GlcNAc(b1-2)Man
# How it was run: as §1
# [7] = molecular target: Neu5Ac(a2-3)Gal(b1-4)[Fuc(a1-3)]GlcNAc(b1-3)Gal
# How it was run: as §1
# [8] = molecular target: Neu5Ac(a2-3)Gal(b1-4)[Fuc(a1-3)]GlcNAc(b1-3)Gal(b1-4)GlcNAc
# How it was run: as §1
# [9] = molecular target: Neu5Ac(a2-3)Gal(b1-4)[Fuc(a1-3)]GlcNAc(b1-3)Gal(b1-4)[Fuc(a1-3)]GlcNAc(b1-3)Gal(b1-4)[Fuc(a1-3)]GlcNAc
# How it was run: as §1
# [10] = molecular target: Neu5Ac(a2-3)Gal(b1-4)[Fuc(a1-3)]GlcNAc(b1-3)GalNAc
# How it was run: as §1
# [11] = molecular target: Neu5Ac(a2-3)Gal(b1-4)[Fuc(a1-3)]GlcNAc(b1-6)[Gal(b1-3)]GalNAc
# How it was run: as §1
# [12] = molecular target: Neu5Ac(a2-3)Gal(b1-4)[Fuc(a1-3)]GlcNAc(b1-6)[Neu5Ac(a2-3)Gal(b1-3)]GalNAc
# How it was run: as §1
# [13] = molecular target: Neu5Ac(a2-3)Gal(b1-4)[Fuc(a1-3)]GlcNAc6S
# How it was run: as §1
# [14] = molecular target: Neu5Ac(a2-3)Gal6S(b1-4)GlcNAc
# How it was run: as §1
# [15] = molecular target: Neu5Ac(a2-3)Gal6S(b1-4)[Fuc(a1-3)]GlcNAc
# How it was run: as §1
# Neu5Ac(a2-3)GalNAc = molecular target: Neu5Ac(a2-3)GalNAc
# How it was run: as §1
# [16] = molecular target: Neu5Ac(a2-3)GalNAc(b1-4)GlcNAc
# How it was run: as §1
# [17] = molecular target: Neu5Ac(a2-3)[GalNAc(b1-4)]Gal(b1-4)Glc
# How it was run: as §1
# [18] = molecular target: Neu5Ac(a2-3)[GalNAc(b1-4)]Gal(b1-4)GlcNAc
# How it was run: as §1
# [19] = molecular target: Neu5Ac(a2-3)[GalNAc(b1-4)]Gal(b1-4)GlcNAc(b1-3)GalNAc
# How it was run: as §1
# [20] = molecular target: Neu5Ac(a2-3)[Neu5Ac(a2-6)]GalNAc
# How it was run: as §1
# Neu5Ac(a2-6)Gal = molecular target: Neu5Ac(a2-6)Gal
# How it was run: as §1
# [21] = molecular target: Neu5Ac(a2-6)Gal(b1-3)GlcNAc(b1-3)[Gal(b1-4)GlcNAc(b1-6)]Gal(b1-4)Glc
# How it was run: as §1
# Neu5Ac(a2-6)Gal(b1-4)Glc = molecular target: Neu5Ac(a2-6)Gal(b1-4)Glc
# How it was run: as §1
# [22] = molecular target: Neu5Ac(a2-6)Gal(b1-4)GlcNAc
# How it was run: as §1
# [23] = molecular target: Neu5Ac(a2-6)Gal(b1-4)GlcNAc(b1-2)Man
# How it was run: as §1
# [24] = molecular target: Neu5Ac(a2-6)Gal(b1-4)GlcNAc(b1-2)Man(a1-3)Man(b1-4)GlcNAc(b1-4)GlcNAc
# How it was run: as §1
# [25] = molecular target: Neu5Ac(a2-6)Gal(b1-4)GlcNAc(b1-2)Man(a1-3)[Gal(b1-4)GlcNAc(b1-2)Man(a1-6)]Man(b1-4)GlcNAc(b1-4)GlcNAc
# How it was run: as §1
# [26] = molecular target: Neu5Ac(a2-6)Gal(b1-4)GlcNAc(b1-2)Man(a1-3)[GlcNAc(b1-2)Man(a1-6)]Man(b1-4)GlcNAc(b1-4)GlcNAc
# How it was run: as §1
# [27] = molecular target: Neu5Ac(a2-6)Gal(b1-4)GlcNAc(b1-2)Man(a1-3)[GlcNAc(b1-4)][Neu5Ac(a2-6)Gal(b1-4)GlcNAc(b1-2)Man(a1-6)]Man(b1-4)GlcNAc(b1-4)GlcNAc
# How it was run: as §1
# [28] = molecular target: Neu5Ac(a2-6)Gal(b1-4)GlcNAc(b1-2)Man(a1-3)[Man(a1-6)]Man(b1-4)GlcNAc(b1-4)GlcNAc
# How it was run: as §1
# [29] = molecular target: Neu5Ac(a2-6)Gal(b1-4)GlcNAc(b1-2)Man(a1-3)[Neu5Ac(a2-3)Gal(b1-4)GlcNAc(b1-2)Man(a1-6)]Man(b1-4)GlcNAc(b1-4)GlcNAc
# How it was run: as §1
# [30] = molecular target: Neu5Ac(a2-6)Gal(b1-4)GlcNAc(b1-2)Man(a1-3)[Neu5Ac(a2-6)Gal(b1-4)GlcNAc(b1-2)Man(a1-6)]Man(b1-4)GlcNAc(b1-4)GlcNAc
# How it was run: as §1
# [31] = molecular target: Neu5Ac(a2-6)Gal(b1-4)GlcNAc(b1-2)Man(a1-3)[Neu5Ac(a2-6)Gal(b1-4)GlcNAc(b1-2)Man(a1-6)]Man(b1-4)GlcNAc(b1-4)[Fuc(a1-6)]GlcNAc
# How it was run: as §1
# [32] = molecular target: Neu5Ac(a2-6)Gal(b1-4)GlcNAc(b1-2)Man(a1-6)Man(b1-4)GlcNAc(b1-4)GlcNAc
# How it was run: as §1
# [33] = molecular target: Neu5Ac(a2-6)Gal(b1-4)GlcNAc(b1-2)Man(a1-6)[Gal(b1-4)GlcNAc(b1-2)Man(a1-3)]Man(b1-4)GlcNAc(b1-4)GlcNAc
# How it was run: as §1
# [34] = molecular target: Neu5Ac(a2-6)Gal(b1-4)GlcNAc(b1-2)Man(a1-6)[GlcNAc(b1-2)Man(a1-3)]Man(b1-4)GlcNAc(b1-4)GlcNAc
# How it was run: as §1
# [35] = molecular target: Neu5Ac(a2-6)Gal(b1-4)GlcNAc(b1-2)Man(a1-6)[Man(a1-3)]Man(b1-4)GlcNAc(b1-4)GlcNAc
# How it was run: as §1
# [36] = molecular target: Neu5Ac(a2-6)Gal(b1-4)GlcNAc(b1-2)[Neu5Ac(a2-6)Gal(b1-4)GlcNAc(b1-4)]Man(a1-3)[GlcNAc(b1-4)][Neu5Ac(a2-6)Gal(b1-4)GlcNAc(b1-2)[Neu5Ac(a2-6)Gal(b1-4)GlcNAc(b1-6)]Man(a1-6)]Man(b1-4)GlcNAc(b1-4)GlcNAc
# How it was run: as §1
# [37] = molecular target: Neu5Ac(a2-6)Gal(b1-4)GlcNAc(b1-2)[Neu5Ac(a2-6)Gal(b1-4)GlcNAc(b1-4)]Man(a1-3)[GlcNAc(b1-4)][Neu5Ac(a2-6)Gal(b1-4)GlcNAc(b1-4)Man(a1-6)]Man(b1-4)GlcNAc(b1-4)GlcNAc
# How it was run: as §1
# [38] = molecular target: Neu5Ac(a2-6)Gal(b1-4)GlcNAc(b1-2)[Neu5Ac(a2-6)Gal(b1-4)GlcNAc(b1-6)]Man(a1-6)[Neu5Ac(a2-6)Gal(b1-4)GlcNAc(b1-2)Man(a1-3)][GlcNAc(b1-4)]Man(b1-4)GlcNAc(b1-4)GlcNAc
# How it was run: as §1
# [39] = molecular target: Neu5Ac(a2-6)Gal(b1-4)GlcNAc(b1-3)Gal(b1-3)GlcNAc
# How it was run: as §1
# [40] = molecular target: Neu5Ac(a2-6)Gal(b1-4)GlcNAc(b1-3)Gal(b1-4)GlcNAc
# How it was run: as §1
# [41] = molecular target: Neu5Ac(a2-6)Gal(b1-4)GlcNAc(b1-3)Gal(b1-4)GlcNAc(b1-2)Man(a1-3)[Neu5Ac(a2-6)Gal(b1-4)GlcNAc(b1-3)Gal(b1-4)GlcNAc(b1-2)Man(a1-6)]GalNAc
# How it was run: as §1
# [42] = molecular target: Neu5Ac(a2-6)Gal(b1-4)GlcNAc(b1-3)Gal(b1-4)GlcNAc(b1-3)Gal(b1-4)GlcNAc
# How it was run: as §1
# [43] = molecular target: Neu5Ac(a2-6)Gal(b1-4)GlcNAc(b1-3)Gal(b1-4)GlcNAc(b1-3)Gal(b1-4)GlcNAc(b1-2)Man(a1-3)[Neu5Ac(a2-6)Gal(b1-4)GlcNAc(b1-3)Gal(b1-4)GlcNAc(b1-3)Gal(b1-4)GlcNAc(b1-2)Man(a1-6)]GalNAc
# How it was run: as §1
binder,measurement,setting,value
Als3-2 (Candida albicans) (protein) KTITGVFNSFNSLTWSNAATYNYKGPGTPTWNAVLGWSLDGTSASPGDTFTLNMPCVFKFTTSQTSVDLTAHGVKYATCQFQAGEEFMTFSTLTCTVSNTLTPSIKALGTVTLPLAFNVGGTGSSVDLEDSKCFTAGTNTVTFNDGGKKISINVDFERSNVDPKGYLTD,glycan array binding signal (z-score),[1],-0.387
same,glycan array binding signal (z-score),[2],-0.572
same,glycan array binding signal (z-score),[3],0.634
same,glycan array binding signal (z-score),[4],-0.499
same,glycan array binding signal (z-score),[5],-0.621
same,glycan array binding signal (z-score),[6],0.73
same,glycan array binding signal (z-score),[7],-0.657
same,glycan array binding signal (z-score),[8],-0.112
same,glycan array binding signal (z-score),[9],-0.602
same,glycan array binding signal (z-score),[10],0.114
same,glycan array binding signal (z-score),[11],-0.041
same,glycan array binding signal (z-score),[12],2.39
same,glycan array binding signal (z-score),[13],-0.619
same,glycan array binding signal (z-score),[14],-0.712
same,glycan array binding signal (z-score),[15],-0.667
same,glycan array binding signal (z-score),Neu5Ac(a2-3)GalNAc,0.082
same,glycan array binding signal (z-score),[16],-0.015
same,glycan array binding signal (z-score),[17],-0.544
same,glycan array binding signal (z-score),[18],-0.449
same,glycan array binding signal (z-score),[19],0.064
same,glycan array binding signal (z-score),[20],0.199
same,glycan array binding signal (z-score),Neu5Ac(a2-6)Gal,-0.515
same,glycan array binding signal (z-score),[21],-0.621
same,glycan array binding signal (z-score),Neu5Ac(a2-6)Gal(b1-4)Glc,-0.183
same,glycan array binding signal (z-score),[22],-0.203
same,glycan array binding signal (z-score),[23],-0.524
same,glycan array binding signal (z-score),[24],2.13
same,glycan array binding signal (z-score),[25],-0.151
same,glycan array binding signal (z-score),[26],-0.56
same,glycan array binding signal (z-score),[27],-0.604
same,glycan array binding signal (z-score),[28],0.677
same,glycan array binding signal (z-score),[29],-0.568
same,glycan array binding signal (z-score),[30],-0.001
same,glycan array binding signal (z-score),[31],0.573
same,glycan array binding signal (z-score),[32],-0.553
same,glycan array binding signal (z-score),[33],-0.552
same,glycan array binding signal (z-score),[34],-0.515
same,glycan array binding signal (z-score),[35],-0.497
same,glycan array binding signal (z-score),[36],1.21
same,glycan array binding signal (z-score),[37],2.02
same,glycan array binding signal (z-score),[38],-0.431
same,glycan array binding signal (z-score),[39],-0.499
same,glycan array binding signal (z-score),[40],-0.315
same,glycan array binding signal (z-score),[41],2.28
same,glycan array binding signal (z-score),[42],0.378
same,glycan array binding signal (z-score),[43],1.63

# Source: the supplement of paper PMC8728848
